From US20170079281A1, “CITRUS-BASED ANTIMICROBIAL COMPOSITION” (priority 2015, published 2017)

Test system: E. coli O157:H7
Experiment: E. coli O157:H7 suspended in dirty water or on spinach
Settings: 20 ppm NaOCl

SMILES: OCl [NaOCl, Sodium hypochlorite]
- log reduction against E. coli O157:H7 (pH 3.1, study #1 dirty water, <30 seconds, 90 seconds & 5 minutes): > 5 log
- log reduction against E. coli O157:H7 (pH 3.1, study #2 washed spinach, <30 seconds, 90 seconds & 5 minutes): 1 log
- log reduction against E. coli O157:H7 (pH 3.1, study #3 unwashed spinach, <30 seconds, 90 seconds & 5 minutes): No log reduction
- log reduction against E. coli O157:H7 (pH 6.5, study #1 dirty water, 90 seconds & 5 minutes): 2.5 log
- log reduction against E. coli O157:H7 (pH 6.5, study #1 dirty water, <30 seconds): No log reduction
- log reduction against E. coli O157:H7 (pH 6.5, study #2 washed spinach, 5 minutes): 1 log
- log reduction against E. coli O157:H7 (pH 6.5, study #2 washed spinach, <30 seconds & 90 seconds): No log reduction
- log reduction against E. coli O157:H7 (pH 6.5, study #3 unwashed spinach, <30 seconds, 90 seconds & 5 minutes): No log reduction
